In test [1] the target is His-MBP-Red1 452-524 L481R, I485R (S. pombe) (UniProt Q9UTR8). Put plainly: SEC; gel filtration of the Red1 452-524 L481R, I485R double mutant (Supplementary Fig. 12e, f); both purified. For orientation: Size exclusion chromatography separates by hydrodynamic size, large species first.
Test [2] deals with T1, Strep-Ars2 107-527 (S. pombe, UniProt O94326 107-527).
T1 construct: vector pETM41; source: E. coli BL21Star (DE3), purified (Ni^2+ chelating Sepharose); not shown: Strep-tag, C-terminal, kept
T1 sequence (looked up): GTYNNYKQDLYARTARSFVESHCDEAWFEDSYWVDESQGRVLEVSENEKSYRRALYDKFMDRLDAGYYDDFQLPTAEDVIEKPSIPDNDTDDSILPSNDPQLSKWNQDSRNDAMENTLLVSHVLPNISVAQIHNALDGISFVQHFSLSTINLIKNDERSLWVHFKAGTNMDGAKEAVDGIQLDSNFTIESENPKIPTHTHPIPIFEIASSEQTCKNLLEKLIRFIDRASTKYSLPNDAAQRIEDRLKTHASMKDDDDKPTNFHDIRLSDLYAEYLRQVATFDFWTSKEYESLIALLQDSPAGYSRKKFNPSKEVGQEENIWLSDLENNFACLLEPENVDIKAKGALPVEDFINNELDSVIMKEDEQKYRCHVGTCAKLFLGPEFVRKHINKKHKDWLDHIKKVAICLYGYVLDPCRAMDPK
Put plainly: pull-down; Strep-tag pull-down: Ni-purified Strep-Ars2 107-527 held on Strep-Tactin XT, Ni-purified His-MBP-Red1 added; 20 mM Tris pH 8, 100 mM NaCl; eluted with 50 mM D-biotin; both purified.

In test [3] the target is T1, Strep-Ars2 107-527. In words: ITC; 25 °C, 0.4-0.8 mM Red1 injected into 30-40 µM Ars2, 20 mM Tris pH 8.0, 100 mM NaCl, one-site model; both purified.
The target in test [4] is T2, Strep-Ars2 107-527 F490D (S. pombe) (UniProt O94326).
T2 sequence: T1 sequence (looked up) with F384D
Put plainly: pull-down; Strep-tag pull-down: Ni-purified Strep-Ars2 107-527 held on Strep-Tactin XT, Ni-purified His-MBP-Red1 added; 20 mM Tris pH 8, 100 mM NaCl; eluted with 50 mM D-biotin; both purified.

The target of test [5] is T3, Strep-Ars2 107-527 K483D (S. pombe) (UniProt O94326).
T3 sequence: T1 sequence (looked up) with K377D
Described as above.

In test [6] the target is T4, Red1, full length, yeast two-hybrid fusion (S. pombe) (UniProt Q9UTR8).
T4 sequence: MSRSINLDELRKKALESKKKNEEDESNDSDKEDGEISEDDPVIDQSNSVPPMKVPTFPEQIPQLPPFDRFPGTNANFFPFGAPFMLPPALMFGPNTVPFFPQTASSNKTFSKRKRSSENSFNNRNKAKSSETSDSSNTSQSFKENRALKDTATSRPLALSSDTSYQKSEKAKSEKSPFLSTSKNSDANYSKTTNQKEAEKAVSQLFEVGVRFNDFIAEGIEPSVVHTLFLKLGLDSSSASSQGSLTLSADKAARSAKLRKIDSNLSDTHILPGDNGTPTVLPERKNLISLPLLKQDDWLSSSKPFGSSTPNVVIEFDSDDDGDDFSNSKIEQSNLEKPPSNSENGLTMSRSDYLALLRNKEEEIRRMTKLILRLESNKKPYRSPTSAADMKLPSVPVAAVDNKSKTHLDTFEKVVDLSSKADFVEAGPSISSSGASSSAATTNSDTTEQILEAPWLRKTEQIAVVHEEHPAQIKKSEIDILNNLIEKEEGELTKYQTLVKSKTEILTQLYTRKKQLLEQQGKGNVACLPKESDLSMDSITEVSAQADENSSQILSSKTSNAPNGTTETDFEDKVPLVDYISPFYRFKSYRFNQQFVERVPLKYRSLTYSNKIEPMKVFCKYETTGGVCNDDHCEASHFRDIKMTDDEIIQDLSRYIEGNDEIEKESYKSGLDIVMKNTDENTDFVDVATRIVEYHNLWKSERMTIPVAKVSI
Put plainly: two-hybrid; Gal4 system (pDEST32 bait, pDEST22 prey) in yeast MaV203; HIS3 reporter, growth without histidine with 5-50 mM 3AT, 30 °C.

Test [7] deals with T5, Red1 L481R, I485R, full length, yeast two-hybrid fusion (S. pombe) (UniProt Q9UTR8).
T5 sequence: T4 sequence with L481R, I485R
The test is described as above.

Test [8] concerns the target T6, Red1 E32R, full length, yeast two-hybrid fusion (S. pombe) (UniProt Q9UTR8).
T6 sequence: T4 sequence with E32R
The test is described as above.

The target of a further test is T7, Red1-E32R-TAP (S. pombe) (UniProt Q9UTR8).
T7 sequence: T4 sequence with E32R
In words: co-IP; soluble extracts of S. pombe grown in minimal medium; Red1-TAP held on IgG Sepharose, 2 h at 4 °C, 150 mM NaCl, 0.2% NP-40; western blot. (In general: A western blot detects proteins with antibodies after separation by electrophoresis.)

Another test deals with T8, Red1-TAP (S. pombe) (UniProt Q9UTR8).
T8 sequence: T4 sequence
Described as above.

Residue numbers refer to the chain shown, from its start. Numbers in names are those of the source. These are yes or no findings as the source states them, for the method shown. For some assays here: In cells and extracts the contact can be indirect. Some results given as binding are weak or reduced against the parent protein; the word gives no strength. Where a sequence is shown, tags or fusion partners need not be part of it.

B1: His-MBP-Red1 452-524 L481R, I485R (domain or fragment, UniProt Q9UTR8 452-524)
chain: EAPWLRKTEQIAVVHEEHPAQIKKSEIDIRNNLREKEEGELTKYQTLVKSKTEILTQLYTRKKQLLEQQGKGN
As for B1, the binding result in test [1] is given as “no binding”.

B2: His-MBP-Red1 20-40 E32R (domain or fragment, UniProt Q9UTR8 20-40)
chain: KNEEDESNDSDKRDGEISEDD
Regarding B2, the results for the binding entry in the test with Strep-Ars2 107-527 [2] and with Strep-Ars2 107-527 [3] were “no binding” and “no binding (tested: 0.4–0.8 mM injected into 30–40 µM Ars2)”, respectively.

B3: His-MBP-Red1 20-40 (domain or fragment, S. pombe)
chain: KNEEDESNDSDKEDGEISEDD
notes: Red1, S. pombe, residues 20-40 with the EDGEI motif; vector pETM41; also called MBP-Red1 EDGEI motif-containing peptide; source: E. coli BL21Star (DE3), purified (Ni^2+ chelating Sepharose or amylose resin, Superdex 200)
Turning to B3, the binding result was “no binding” in [4], “binds” with Strep-Ars2 107-527 [2] and “no binding” in test [5].

B4: Ars2, full length, yeast two-hybrid fusion (protein, UniProt O94326 1-609)
chain: MSEVHQESEVEYSRWKRERSPERSQRRSQSPPGEQSAYHRERSPLRKRGNYYDDRTRASGPYPTFTKPLIDPYTQTNAVSYERFIRWYSKENHISATTEDLYNSLHGTYNNYKQDLYARTARSFVESHCDEAWFEDSYWVDESQGRVLEVSENEKSYRRALYDKFMDRLDAGYYDDFQLPTAEDVIEKPSIPDNDTDDSILPSNDPQLSKWNQDSRNDAMENTLLVSHVLPNISVAQIHNALDGISFVQHFSLSTINLIKNDERSLWVHFKAGTNMDGAKEAVDGIQLDSNFTIESENPKIPTHTHPIPIFEIASSEQTCKNLLEKLIRFIDRASTKYSLPNDAAQRIEDRLKTHASMKDDDDKPTNFHDIRLSDLYAEYLRQVATFDFWTSKEYESLIALLQDSPAGYSRKKFNPSKEVGQEENIWLSDLENNFACLLEPENVDIKAKGALPVEDFINNELDSVIMKEDEQKYRCHVGTCAKLFLGPEFVRKHINKKHKDWLDHIKKVAICLYGYVLDPCRAMDPKVVSTSYVSLQILNKPYVGFRNINANYTFPTTSYSRRNDEEITSGASSQKSYSRQEPMIHRREFYRTYQDLDAPNQEVPELDY
Take B4: the values for the binding entry in test [6], in test [7] and in test [8] were “binds”, “binds” and “no binding”, respectively.

B5: Ars2-GFP (protein, UniProt O94326 1-609)
chain: B4 chain
As for B5, the binding result is on record as “no binding” in the test with Red1-E32R-TAP (S. pombe) and “binds” with Red1-TAP (S. pombe).
